PubChem BioAssay AID1347165 (National Center for Advancing Translational Sciences (NCATS), 2019)
Screen size: about 220,000 compounds; about 5,700 (2.6%) were called active. Inconclusive means that the source gave no clear call. Such entries were picked first, then a sample of the others. Calls follow the shape of the dose curve; as a rule, active = well fitted inhibition curve with a large enough effect; inconclusive = small, poorly fitted or top-dose-only effect; inactive = no such curve, though single readings can be large or run the other way. Where the call is inconclusive, the potency comes from a doubtful curve fit.

Biological target: Lysine-specific demethylase 5B (Homo sapiens) (UniProt Q9UGL1)
Test: Primary screen for KDM5B Histone Demethylases FDH-coupled qHTS; also: nearly all actives have a fitted effect of over 70% in size; as to activity change, negative = inhibition: 0% is about no effect
Conditions: FDH-coupled NADH fluorescence (FDH is formaldehyde dehydrogenase); activity change, negative = inhibition: at 57.7 µM (top of the series) unless noted
Method in brief: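 qHTS format, multiple compound concentrations. Buffer 50 mM HEPES pH 7.5/0.01% Tween-20; 200 nM KDM5BΔAP final; 10 min compound preincubation; substrate-mix levels 12.5 µM peptide, 25 µM α-KG, 0.25 mM NAD⁺; 30 min RT; ΔRFU.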
Potency is read from the fitted curve at half-maximal effect; tags tell the direction and shape of the fitted curve.

UniProt Q9UGL1, sequence (Q9UGL1 whole entry, looked up): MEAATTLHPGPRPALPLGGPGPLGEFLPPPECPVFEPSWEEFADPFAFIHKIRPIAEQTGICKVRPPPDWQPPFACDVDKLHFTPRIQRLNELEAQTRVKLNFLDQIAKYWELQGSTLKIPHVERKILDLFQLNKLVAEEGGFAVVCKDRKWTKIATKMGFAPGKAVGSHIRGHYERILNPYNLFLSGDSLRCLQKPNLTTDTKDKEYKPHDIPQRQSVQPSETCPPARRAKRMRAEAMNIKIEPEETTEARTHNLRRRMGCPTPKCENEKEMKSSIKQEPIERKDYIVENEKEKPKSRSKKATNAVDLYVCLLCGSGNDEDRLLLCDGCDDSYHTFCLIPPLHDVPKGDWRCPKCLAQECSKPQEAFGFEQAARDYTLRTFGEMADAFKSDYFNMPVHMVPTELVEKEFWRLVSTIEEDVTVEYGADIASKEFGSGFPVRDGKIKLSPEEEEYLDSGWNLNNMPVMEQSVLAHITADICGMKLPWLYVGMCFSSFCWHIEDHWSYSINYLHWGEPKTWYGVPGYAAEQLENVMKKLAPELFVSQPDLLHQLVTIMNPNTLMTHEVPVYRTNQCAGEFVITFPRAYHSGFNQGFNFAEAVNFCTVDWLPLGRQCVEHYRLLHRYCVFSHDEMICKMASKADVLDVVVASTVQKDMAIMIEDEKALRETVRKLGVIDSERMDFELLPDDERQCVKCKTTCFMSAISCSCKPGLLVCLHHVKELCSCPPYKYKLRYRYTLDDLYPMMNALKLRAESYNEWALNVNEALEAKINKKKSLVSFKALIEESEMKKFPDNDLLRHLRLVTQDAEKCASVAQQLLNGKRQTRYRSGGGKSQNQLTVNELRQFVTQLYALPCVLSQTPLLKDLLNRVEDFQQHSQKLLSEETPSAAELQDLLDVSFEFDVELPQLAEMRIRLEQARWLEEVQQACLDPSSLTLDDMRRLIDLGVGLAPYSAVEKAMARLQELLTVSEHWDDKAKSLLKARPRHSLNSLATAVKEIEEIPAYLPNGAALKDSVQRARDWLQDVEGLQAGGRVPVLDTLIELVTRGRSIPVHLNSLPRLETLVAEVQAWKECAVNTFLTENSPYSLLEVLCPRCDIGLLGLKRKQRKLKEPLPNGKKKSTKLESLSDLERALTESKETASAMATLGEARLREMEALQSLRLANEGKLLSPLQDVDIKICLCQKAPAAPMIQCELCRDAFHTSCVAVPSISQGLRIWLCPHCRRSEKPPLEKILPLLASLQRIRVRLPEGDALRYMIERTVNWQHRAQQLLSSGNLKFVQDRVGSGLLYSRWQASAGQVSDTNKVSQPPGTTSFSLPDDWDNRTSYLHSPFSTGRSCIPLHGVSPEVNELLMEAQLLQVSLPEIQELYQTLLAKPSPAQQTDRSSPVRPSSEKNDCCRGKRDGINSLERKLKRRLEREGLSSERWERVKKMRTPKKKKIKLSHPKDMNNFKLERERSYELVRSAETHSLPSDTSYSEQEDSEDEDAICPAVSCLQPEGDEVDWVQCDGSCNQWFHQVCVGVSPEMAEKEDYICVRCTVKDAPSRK

SMILES | Potency | activity change, negative = inhibition
CCN(CC)CC(C)NC (stereo not given) | inconclusive: 158 µM [inhibitor, partial curve, poor fit] | –
CC(=O)Nc1ccc(OCC(=O)N2CCC(C)CC2)nc1 | – | inactive: -8.57%
CCN(CC)C(=O)c1noc2c1CC(C(C)(C)C)CC2 (stereo not given) | – | inactive: -4.78%
O=C(O)CCCC(=O)N1CCN2C(=O)c3cc(-c4ccco4)ccc3NC(=O)[C@@H]2C1 | active: 39.8 µM | –
O=C(Cc1cccc2ccccc12)Nc1cccc2ncccc12 | – | inactive: -12%
CCSc1nc2n(n1)C(c1ccncc1)C1=C(CC(C)(C)CC1=O)N2 (stereo not given) | inconclusive: 25.1 µM [inhibitor, single point] | –
CCN(C(=O)c1cc2cc3ccc(OC)cc3nc2o1)c1cccc(C)c1 | inconclusive: 25.1 µM [inhibitor, partial curve, poor fit] | –
CN1CCC(NC[C@H]2O[C@@H](CO)[C@@H](O)[C@H]2N2CCOCC2)CC1 | inconclusive: 25.1 µM [inhibitor, single point] | –
COc1ccc(Cc2nc3ccc(C(=O)NCc4ccc(OC)cc4OC)cc3o2)cc1 | inconclusive: 15.8 µM [inhibitor, partial curve, poor fit] | –
COc1ccc(CNC(=O)c2nc(Cn3nc(C)c(Br)c3C)no2)cc1OC | inconclusive: 1 µM [inhibitor, full curve, poor fit] | –
CCc1ccc(-c2cc(C(=O)O)c3ccc(C)c(C)c3n2)cc1 | inconclusive: 1.78 µM [inhibitor, full curve, poor fit] | –
CCc1ccccc1NC(=O)c1ccc2c(c1)CCN2S(C)(=O)=O | – | inconclusive: -39% [inhibitor]
CC(C)(C)c1ccc(C(=O)Nc2cc(-c3nc4ccccc4o3)ccc2Cl)cc1 | inconclusive: 4.47 µM [inhibitor, full curve, poor fit] | –
NCc1ccc(-c2cccc(O)c2)cc1 | inconclusive: 112 µM [inhibitor, partial curve] | –
O=C(NCc1cccc(F)c1)c1nc2c(o1)CCN(Cc1cc(F)ccc1F)CC2 | active: 31.6 µM | –
O=C(CSc1nc(Nc2ccccc2)c2ccccc2n1)NC1CC1 | – | inactive: 157%
Cc1ccc(-c2csc(N3C(=N)SCC3=O)n2)cc1 | inconclusive: 35.5 µM [inhibitor, partial curve, poor fit] | –
CCOC(=O)c1sc2nc(C(C)N3CCCC3)[nH]c(=O)c2c1C (stereo not given) | inconclusive: 8.91 µM [inhibitor, partial curve, poor fit] | –
CCc1ccccc1NC(=O)C1CCN(S(=O)(=O)c2ccc3[nH]c(=O)ccc3c2)CC1 | inconclusive: 14.1 µM [inhibitor, partial curve, poor fit] | –
O=C(NCc1nnc2n1CCC2)c1ccc2nc(-c3ccc(F)cc3)cn2c1 | active: 31.6 µM | –
COc1ccc(-c2ccnc3nc(C4CCC4)nn23)cc1OC | inconclusive: 28.2 µM [inhibitor, partial curve, poor fit] | –
Cc1ccc2c(C(=O)NCc3ccc(F)c(Cl)c3)cc(NC(=O)C(C)C)cc2n1 | inconclusive: 14.1 µM [inhibitor, partial curve, poor fit] | –
O=C(c1ccc2nccn2c1)N1CCCC1 | inconclusive: 141 µM [inhibitor, partial curve, poor fit] | –

SMILES | Potency | activity change, negative = inhibition
COc1ccc2nc(/C=N/NC(=O)CCNC(=O)OC(C)(C)C)ccc2c1 | inconclusive: 28.2 µM [inhibitor, partial curve, poor fit] | –
CN(C)S(=O)(=O)N1CCc2nc3cc(-c4ccccc4)[nH]n3c(=O)c2C1 | inconclusive: 3.16 µM [inhibitor, partial curve, poor fit] | –
O=C(Nc1ccccc1Br)N1CCN(S(=O)(=O)c2ccccc2)CC1 | – | inactive: 17.1%
O=C(O)c1ccc(C#Cc2ccccc2)cc1 | – | inactive: 20%
COc1cc(OC)cc(-c2nc(-c3cccc(C)c3)no2)c1 | inconclusive: 31.6 µM [inhibitor, partial curve, poor fit] | –
COc1ccc(C)cc1NC(=O)CSc1nc2ccccc2nc1N1CCOCC1 | inconclusive: 39.8 µM [inhibitor, single point] | –
CCOC(=O)C(=CNc1cccnc1Oc1ccc(C)c2c1CCC2)C(=O)OCC | inconclusive: 39.8 µM [inhibitor, single point] | –
O=C(COc1ccc(Cl)cc1)Nc1nnc2n1CCS2 | inconclusive: 15.8 µM [inhibitor, partial curve, poor fit] | –
CC(C)Cc1cc(C(=O)N2CCC(n3cc(-c4ccccn4)nn3)CC2)on1 | inconclusive: 31.6 µM [inhibitor, single point] | –
COc1ccc(C)cc1NC(=O)NCc1cccn1Cc1ccccc1 | inconclusive: 28.2 µM [inhibitor, partial curve, poor fit] | –
Clc1cnccc1CN1CCNc2cnc(-c3ccccc3)cc2C1 | inconclusive: 39.8 µM [inhibitor, partial curve, poor fit] | –
O=S(=O)(NCCc1cn2ccccc2n1)c1ccc(Cl)cc1C(F)(F)F | – | inactive: 21.4%
CC(=O)N1CCN(c2ccc(C=O)cc2)C(=O)C1 | inconclusive: 100 µM [inhibitor, partial curve] | –
CC(C)CNC(=O)c1cccc(NC(=O)C2CCCCC2)c1 | – | inactive: 27%
Cc1ccc(C(CNC(=O)COc2cc(C)cc(C)c2)N2CCCCC2)cc1 (stereo not given) | – | inactive: 11.6%
O=C1C(Nc2ccccc2)=CC(c2ccc(Br)cc2)N1c1ccccc1 (stereo not given) | inconclusive: 25.1 µM [inhibitor, partial curve, poor fit] | –
COCCNC(=O)C(NC(=O)c1ccccc1)C1CCN(C(=O)C2CC2)CC1 (stereo not given) | active: 17.8 µM | –
CCCCCCCCNC(=O)c1ccncc1 | – | inactive: -3.59%
CCn1nccc1C(=O)N1CCC2(CC1)CCC(O)(CN(C)C)CC2 | active: 20 µM | –
Cc1ccc(CNCc2ccccc2)s1 | – | inconclusive: -34.3% [inhibitor]
CCCCC(=O)n1nc(-c2ccc(Cl)cc2)nc1N | – | inactive: 15.5%
C[C@@H]1C(=O)O[C@H]2[C@H]1CC[C@@]1(C)Cc3sc(NC(=O)COc4ccccc4)nc3[C@@H](C)[C@H]21 | inconclusive: 11.2 µM [inhibitor, partial curve] | –
